The values that follow come from paper PMC11249618.

The chains behind the UniProt entries cited, without tags or fusion partners. Where a name states a change or a piece, a line headed by the entry shows the natural chain unless it says otherwise.
UniProt Q8IXI1: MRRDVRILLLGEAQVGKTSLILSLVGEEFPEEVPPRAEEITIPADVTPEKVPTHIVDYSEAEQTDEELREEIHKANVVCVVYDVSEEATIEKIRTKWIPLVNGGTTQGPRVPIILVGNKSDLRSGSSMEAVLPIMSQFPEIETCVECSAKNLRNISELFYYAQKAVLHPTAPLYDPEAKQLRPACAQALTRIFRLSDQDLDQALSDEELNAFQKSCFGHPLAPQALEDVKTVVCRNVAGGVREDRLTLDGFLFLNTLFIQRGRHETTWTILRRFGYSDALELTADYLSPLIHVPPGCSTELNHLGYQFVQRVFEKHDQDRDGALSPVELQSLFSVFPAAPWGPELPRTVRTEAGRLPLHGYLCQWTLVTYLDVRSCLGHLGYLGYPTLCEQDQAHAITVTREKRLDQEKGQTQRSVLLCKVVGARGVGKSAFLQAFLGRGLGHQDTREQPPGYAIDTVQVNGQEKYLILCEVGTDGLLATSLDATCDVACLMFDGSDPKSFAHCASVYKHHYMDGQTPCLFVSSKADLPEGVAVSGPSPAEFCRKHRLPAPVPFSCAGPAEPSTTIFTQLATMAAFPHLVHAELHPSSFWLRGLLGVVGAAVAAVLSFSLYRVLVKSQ
UniProt Q8IXI2: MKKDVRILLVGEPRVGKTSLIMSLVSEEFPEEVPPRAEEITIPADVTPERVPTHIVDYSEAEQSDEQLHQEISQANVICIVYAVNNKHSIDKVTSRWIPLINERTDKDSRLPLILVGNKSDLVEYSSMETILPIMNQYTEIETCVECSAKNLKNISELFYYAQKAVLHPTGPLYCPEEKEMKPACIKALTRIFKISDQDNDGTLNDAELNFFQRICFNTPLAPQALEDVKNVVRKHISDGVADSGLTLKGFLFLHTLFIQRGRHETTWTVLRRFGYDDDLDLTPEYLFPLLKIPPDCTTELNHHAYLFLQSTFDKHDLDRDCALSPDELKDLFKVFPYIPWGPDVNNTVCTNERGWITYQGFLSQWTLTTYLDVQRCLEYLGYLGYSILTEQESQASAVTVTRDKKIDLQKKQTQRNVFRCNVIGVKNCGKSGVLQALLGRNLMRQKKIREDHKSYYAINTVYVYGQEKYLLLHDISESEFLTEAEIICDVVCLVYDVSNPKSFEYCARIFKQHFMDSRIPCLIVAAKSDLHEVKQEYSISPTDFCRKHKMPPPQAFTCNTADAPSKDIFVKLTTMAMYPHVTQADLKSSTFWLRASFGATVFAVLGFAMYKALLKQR
UniProt O00429: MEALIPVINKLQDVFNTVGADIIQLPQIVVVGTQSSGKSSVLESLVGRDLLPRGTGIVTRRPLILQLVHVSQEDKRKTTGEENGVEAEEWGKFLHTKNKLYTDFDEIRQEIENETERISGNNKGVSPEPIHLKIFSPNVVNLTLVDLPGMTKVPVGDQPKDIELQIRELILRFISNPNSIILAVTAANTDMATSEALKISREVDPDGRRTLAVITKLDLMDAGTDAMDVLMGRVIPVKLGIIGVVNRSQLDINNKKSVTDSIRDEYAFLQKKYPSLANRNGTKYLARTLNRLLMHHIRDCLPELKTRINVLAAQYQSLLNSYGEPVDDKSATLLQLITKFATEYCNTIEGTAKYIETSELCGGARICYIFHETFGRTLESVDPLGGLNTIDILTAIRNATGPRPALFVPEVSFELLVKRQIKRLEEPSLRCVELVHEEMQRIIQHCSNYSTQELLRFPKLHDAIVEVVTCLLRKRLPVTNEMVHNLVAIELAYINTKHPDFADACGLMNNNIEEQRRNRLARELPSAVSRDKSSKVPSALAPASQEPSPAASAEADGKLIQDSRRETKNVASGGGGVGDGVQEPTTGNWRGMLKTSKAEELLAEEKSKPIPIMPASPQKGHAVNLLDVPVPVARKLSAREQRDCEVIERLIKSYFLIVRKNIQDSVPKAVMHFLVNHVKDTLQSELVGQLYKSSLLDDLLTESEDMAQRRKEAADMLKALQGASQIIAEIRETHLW

Results are given in words; binding and its absence hold for the method and conditions named. For part of these data: Binding seen in cells or lysates may run through a third protein. Some results given as binding are weak or reduced against the parent protein; the word gives no strength.

Assay [1] addresses Mitochondrial Rho GTPase 2 (endogenous, SH-SY5Y cells) (human (endogenous in SH-SY5Y)) (UniProt Q8IXI1). The assay is described as follows: co-IP; lysates of SH-SY5Y cells with stable expression of PS2 WT or PS2 D439A; IP with anti-Miro2 or anti-PS2 antibody or normal IgG on Protein A/G magnetic beads; Western blot (Fig. 5E, 7A-C); Miro2 with Mfn1 and Mfn2 decreased, with Drp1 unchanged, in PS2 D439A cells. On the technique in general: Immunoblotting shows a protein as a band on a membrane.

Assay [2] deals with presenilin 2 wild type, stably expressed in SH-SY5Y cells (pLV-PS2 WT) (human) (UniProt P49810). Described as above.
The target in another assay is GST-PS2(1–87) (human) (UniProt P49810). The assay is described as follows: pull-down; GST pull-down of recombinant GST-PS2 fragments with recombinant His-Miro2 fragments; bound material eluted with SDS sample buffer, SDS-PAGE and Western blot (Fig. 5C, D); both purified.
The target in a further assay is GST-PS2(271–361) (human) (UniProt P49810). The assay is described as above.
In assay [3] the target is Mitochondrial Rho GTPase 2 (endogenous, SH-SY5Y cells) (human (endogenous in SH-SY5Y)) (UniProt Q8IXI1). The assay is described as follows: co-IP; detergent lysates of SH-SY5Y cells; IP with rabbit anti-Miro1, anti-Miro2 or anti-PS2 antibody or control IgG on Protein A/G magnetic beads, washed with PBST; Western blot with anti-PS2 and anti-Miro2 (Fig. 5A, B).
Assay [4] deals with Mitochondrial Rho GTPase 1 (endogenous, SH-SY5Y cells) (human (endogenous in SH-SY5Y)) (UniProt Q8IXI2). The assay is described as above.

Regarding Drp1 (from UniProt O00429 1-736), the binding result is on record as “binds” in assay [1] and “no binding” in assay [2]. “His-Miro2(1–219) (from UniProt Q8IXI1 1-219) (domain or fragment)”: the binding result with GST-PS2(1–87) (human) and with GST-PS2(271–361) (human) was “no binding” in each case. Turning to “His-Miro2(220–592) (from UniProt Q8IXI1 220-592) (domain or fragment)”, the binding entry with GST-PS2(1–87) (human) is “no binding”. Turning to “presenilin 2 (endogenous, SH-SY5Y cells) (from UniProt P49810-1 1-448)”, the binding entry in assay [3] is “binds”; in assay [4] it was “no binding”. “presenilin 2 D439A mutant, stably expressed in SH-SY5Y cells (pLV-PS2 D439A) (from UniProt P49810-1 1-448)”: the binding entry in assay [1] was “binds”. Take “presenilin 2 wild type, stably expressed in SH-SY5Y cells (pLV-PS2 WT) (from UniProt P49810-1 1-448)”: the binding result in assay [1] is reported as “binds”.
